Numbering of substitutions follows the chain as printed. “Also recorded” adds a separate entry of the source.
B1: VH0/VK1: control antibody produced by transient transfection, chimeric VH0 with humanized VK1 (protein)
heavy chain: EVTLKESGGGLVQPGGSRKLSCAASGFTFSTFGIHWVRQAPEKGLEWVAYISGASTTIYYADTVKGRFTISRDNPKNTLFLQMTSLRSEDTAMYYCARYGTSFPYGLDYWGQGTSVTVSSASTKGPSVFPLAPSSKSTSGGTAALGCLVKDYFPEPVTVSWNSGALTSGVHTFPAVLQSSGLYSLSSVVTVPSSSLGTQTYICNVNHKPSNTKVDKRV[letters of human IgG1 Fc left out]
light chain: DIVMTQSPGSLAVSLGERATINCKASQSVDYDGDSYMNWYQQKPGKAPKLLIYGASNLESGIPDRFSGSGSGTDFTLTISRLEEEDAASYYCQQSNEDPFTFGQGTKLEIKRTVAAPSVFIFPPSDEQLKSGTASVVCLLNNFYPREAKVQWKVDNALQSGNSQESVTEQDSKDSTYSLSSTLTLSKADYEKHKVYACEVTHQGLSSPVTKSFNRGEC
B2: VH5Vk3-ThioBridge®-(VCP-SN-38)2 (conjugate)
heavy: EVQLVESGGGLVQPGGSLKLSCAASGFTFSTFGIHWVRQAPGKGLEWVAYISGASTTIYYADSVKGRFTISRDNSKNTLYLQMNSLRAEDTAVYYCARYGTSFPYGLDYWGQGTLVTVSSASTKGPSVFPLAPSSKSTSGGTAALGCLVKDYFPEPVTVSWNSGALTSGVHTFPAVLQSSGLYSLSSVVTVPSSSLGTQTYICNVNHKPSNTKVDKRV[letters of human IgG1 Fc left out]
light: B1 light chain with G9D, E84P, S89V
B3: VH4Vk3-ThioBridge®-(VCP-SN-38)2 (conjugate)
heavy: B2 heavy with S63T
light: B1 light chain with G9D, E84P, S89V

What was measured:
[1] = biological target: T1, rhEphA5 antigen (Homo sapiens, UniProt P54756); assay: kd (1/s)
T1 construct: purchased R and D systems 3036-A5
Protocol: Table printed on a drawing sheet, FIG. 13
Head of the field: kd (1/s)
The patent's description of the figure: FIG. 13 is a table illustrating the single cycle kinetic parameters of chimeric (VH0/VK0) and humanized 11C12 variants (tested as cell culture supernatants) binding to rhEphA5 antigen as determined using the Biacore T200. The relative KD was calculated by dividing the KD of the humanized variant by that of the VH0/VK0 (top row) assayed in the same experiment. The variants marked with ‘*’ have KD values that are within two-fold of, or are better than, the chimeric antibody. The chimeric and selected variants marked in ‘#’ were identified as the main leads for purification. […]
Where the first naming reader finds the target: description_of_the_figure: humanized 11C12 variants (tested as cell culture supernatants) binding to rhEphA5 antigen as determined using the Biacore T200

[2] = tested on: A549 cell line-derived human lung cancer xenograft model; assay: A549 xenograft efficacy; assay type: in vivo, mice; conditions: 10 mg/kg i.v. weekly, 3 doses
[3] = tested on: H460-derived xenograft model of human lung cancer; assay: H460 xenograft efficacy; assay type: in vivo, mice; conditions: 10 mg/kg every 5 days, 3 doses
[4] = tested on: PDX model TM00096 (BR085F), triple negative breast cancer; assay: PDX TM00096 efficacy; assay type: in vivo, mice; conditions: for tumor weight compared to PBS (placebo): TM00096, 4 weekly doses of 10 mg/kg; for tumor response (tumor volume): TM00096, 10 mg/kg weekly tail vein, 5 doses (ADC1, ADC2) or 4 doses (ADC3, ADC4), here ADC2 = VH4Vk3-ThioBridge-VCP-MMAE
Protocol: Test Animals. The present studies were performed using female NSG™ mice implanted with the PDX model TM00096 (BR085F) purchased from Jackson Laboratories. These mice are extremely immunodeficient and carry two mutations: severe combined immune deficiency (scid) and a complete null allele of the IL2 receptor common gamma chain (IL2rg^null). The scid mutation is a mutation in the DNA repair complex protein Prkdc and renders the mice B and T cell deficient. The IL2rg^null mutation prevents cytokine signaling through multiple receptors, leading to a deficiency in functional NK cells. This severe immunodeficiency allows the implantation of patient derived xenografts (PDX) and growth of human tissue-based tumors in the mice. These tumors have similar characteristics to the human tumors from which they are derived (e.g., gene expression) and are predictive of human response to therapeutic agents. The initial and final diagnosis of the patient from which the model was derived was invasive ductal carcinoma AJCC IIA/Grade 3. The primary site of the tumor was breast, sample for implantation was obtained from the metastatic site (lung). The tumor was not treatment naïve. The patient from which the sample was derived was a person. The sample was obtained by surgical resection. The host strain of the sample for engraftment was NOD.Cg-Prkdc^scid Il2rg^tm1Wj1/SzJ (aka NSG or NOD Scid gamma).
Mice received 5 weekly doses of ADC1 or ADC2, or 4 weekly doses of ADC3 or ADC4 at 10 mg/kg or PBS via tail vein injection. Animals were dosed on days 0, 7, 14, 21 and 28 followed by 2 weeks of observation (day 28-40) without treatment (or until cessation of study). The number of mice used per group averaged n=7-10 with some mice presenting with more than 1 tumor implanted subcutaneously. In those cases, each tumor size was measured and recorded independently. Measurements were performed 2-3 times weekly with the aid of a digital caliper (Fisherbrand™ Traceable™ Digital Carbon Fiber Calipers). Studies lasted an average of 40 days or until maximum allowed tumor volume was reached and/or skin ulceration was noted. All studies included a control group of an equal number of mice to those in the treatment group. Control groups received PBS tail vein injections and were submitted to the same handling procedures as TA treated mice. First treatment was administered when tumors reached 100-150 mm3 volume.

[5] = tested on: H522, H460, A549 and H1299 cells; assay: Incucyte cytotoxicity of ADC (% confluence); assay type: cell-based, human
[6] = Body weight of tumor-bearing mice pre- and post-treatment, cell line xenograft studies
[7] = Body weight and tolerability of PDX-bearing mice before and after treatment; conditions: TM00096-bearing mice, 10 mg/kg weekly; ADC2 = VH4Vk3-ThioBridge-VCP-MMAE
[8] = tested on: H522-derived Xenograft Model of Human Lung Cancer; assay: H522 xenograft efficacy; assay type: in vivo, mice; conditions: 10 mg/kg i.v. weekly, 3 doses, FIGS. 72, 74, 76
[9] = H460 xenograft, 10 mg/kg every 5 days, 3 doses

T1 sequence (P54756 25-1037 limits assumed): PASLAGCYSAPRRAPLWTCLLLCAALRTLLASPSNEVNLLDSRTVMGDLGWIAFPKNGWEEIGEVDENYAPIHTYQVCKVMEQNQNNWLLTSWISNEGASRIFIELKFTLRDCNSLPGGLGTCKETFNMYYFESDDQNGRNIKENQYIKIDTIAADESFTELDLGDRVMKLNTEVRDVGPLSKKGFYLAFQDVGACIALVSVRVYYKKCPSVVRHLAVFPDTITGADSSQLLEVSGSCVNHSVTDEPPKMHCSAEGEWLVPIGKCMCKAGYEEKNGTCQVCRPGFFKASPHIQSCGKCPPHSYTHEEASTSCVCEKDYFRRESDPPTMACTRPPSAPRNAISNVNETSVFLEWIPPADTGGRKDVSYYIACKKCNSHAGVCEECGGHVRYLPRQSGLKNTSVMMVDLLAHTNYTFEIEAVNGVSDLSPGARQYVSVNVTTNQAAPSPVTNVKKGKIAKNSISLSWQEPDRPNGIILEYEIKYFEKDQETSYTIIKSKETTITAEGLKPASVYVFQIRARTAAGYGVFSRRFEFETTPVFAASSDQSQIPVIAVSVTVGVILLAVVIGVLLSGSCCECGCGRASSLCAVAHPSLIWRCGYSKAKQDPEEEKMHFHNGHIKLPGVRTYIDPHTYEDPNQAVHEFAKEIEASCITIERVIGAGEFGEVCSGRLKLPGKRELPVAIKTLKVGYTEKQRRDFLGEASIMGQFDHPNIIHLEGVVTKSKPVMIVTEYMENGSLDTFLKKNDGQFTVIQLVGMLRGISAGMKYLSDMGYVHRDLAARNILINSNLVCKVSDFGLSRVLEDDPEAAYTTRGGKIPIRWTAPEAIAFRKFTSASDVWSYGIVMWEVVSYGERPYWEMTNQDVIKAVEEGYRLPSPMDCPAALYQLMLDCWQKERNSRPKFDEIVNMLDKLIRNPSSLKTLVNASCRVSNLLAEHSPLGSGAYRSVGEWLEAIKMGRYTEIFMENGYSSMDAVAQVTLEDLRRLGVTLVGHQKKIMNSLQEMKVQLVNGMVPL

Molecule	kd [1]	tumor response [2]	tumors with partial regression ([3]; n=9)	tumor weight compared to PBS (placebo) [4]	tumor response (tumor volume) [4]	ADC induced cell death (decrease of confluence) [5]	change in body weight, first dosing vs termination ([6]; A549 xenograft, 10 mg/kg)	change in body weight, first dosing vs termination [6, 9]	change in body weight before and after treatment [7]	tumors with full regression ([3]; group 3 n=9 (MMAE ADC), n=8 (SN-38 ADC))	change in body weight, first dosing vs termination ([6]; H522 xenograft, 10 mg/kg weekly, 3 doses)	tumor regression [8]
B1	0.00137 s⁻¹	–	–	–	–	–	–	–	–	–	–	–
B2	–	Partial regressions of tumors treated with the ADC VH5Vk3-ThioBridge®-(VCP-SN-38)2 (10 mg/kg) were observed until day 14, after which tumors progressed steadily until day 20	7 tumors	slightly reduced in weight compared to the PBS control group	delayed tumor growth followed by rapid re-growth and early termination due to tumor burden; also recorded: modest in vivo anti-tumor activity	increasing amounts of ADC induced cell death which is dependent on the levels of expression of the target EphA5	No significant differences in the body weights	no significant changes in body weight	no significant changes in body weight	–	–	–
B3	–	–	–	no significant reduction in weight as compared to placebo	delayed tumor growth followed by rapid re-growth and early termination due to tumor burden; also recorded: modest in vivo anti-tumor activity	increasing amounts of ADC induced cell death which is dependent on the levels of expression of the target EphA5	no significant changes in body weight	no changes in body weight	no significant changes in body weight	1 tumors	no significant changes in body weight	Full regression was observed for all ADC-treated tumors
